From paper PMC6249039 (Journal of medicinal chemistry, 2018) come the findings set out here.

The target of test [1] is Human MetAP1 Mn2+ isoform (Homo sapiens, UniProt P53582). As to the kind of experiment: Cross-inhibition screen, human methionine aminopeptidase 1. As to conditions: read-out: Percent inhibition, Human MetAP1 Mn2+ isoform. Type of test: biochemical.
The target of another test is NDM-1 (Klebsiella pneumoniae, UniProt C7C422). As to the kind of experiment: biochemical. To be noted: read-out: Percent inhibition, NDM-1.

One may read the inhibition as the percentage by which the read-out fell short of the control. Consider `Cc1cc(=O)c(O)c(C(=O)O)[nH]1` [Compound 17, 3-Hydroxy-6-methyl-4-oxo-1,4-dihydropyridine-2-carboxylic acid], for which the inhibition at 200 µM in test [1] came to 0%.
As for `Cc1cc(=O)c(O)c(C(=O)O)o1` [Compound 1, 3-Hydroxy-6-methyl-4-oxo-4H-pyran-2-carboxylic acid], the inhibition at 200 µM on NDM-1 is 13%.
Regarding `Cc1nc(C(=O)O)c(O)c(=O)[nH]1` [Compound 19], the inhibition at 200 µM in test [1] amounted to 0%.
Regarding `Nc1cccc(C(=O)O)c1O` [Compound 23], in test [1], the inhibition at 200 µM was 0%.
